Reference: the RNAGym collection of RNA variant scans (doi:10.1093/nar/gkz1192)
Read counts are not given, so values of variants with three or more changes are uncertain.

B1: CPEB3 Ribozyme (parent)
chain: UAACAGGGGGCCACAGCAGAAGCGUUCACGUCGCAGCCCCUGUCAGAUUCUGGUGAAUCUGCGAAUUCUGCUGUAUAUCUC

Variants of: B1
Test: self-cleavage, relative activity (ratio to wild type); higher = more cleavage; in vitro, sequencing
Summary of the method: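 Relative activity compares each variant's cleaved/total read fraction with that of the unmutated ribozyme. To get these fractions, barcoded CPEB3 ribozyme libraries from rounds of error-prone PCR were transcribed with T7 RNA polymerase for 5 hours at 37°C and then given 15 min of DNase I treatment before EDTA was added. The RNAs were reverse transcribed with template switching and sequenced on Illumina, and DNA sequencing linked barcodes to variants. A minimum of 5 reads applied, and three batches were averaged.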

Row | Variant | self-cleavage
1 | UAACAAGGGGCCACAGCAGAAGCGUUCACGUCGCAGCCCCUGUCAGAUUCUGGUGAGUCUGCGAACUCUGCUGUAUAUCGC [G6A A57G U66C U80G] | 0.11
2 | UAACAAGGGGCCACAGCAGAAGCGUUCACGUCGCAGCCCCUGUCAGAUUCUGGUGAUUCUGCGAAUUCUGCUGUUUAUCUC [G6A A57U A75U] | 0.05
3 | UAACAAGGGGACUCAGCAGAAGCGUUCACGUCGCAGCCCCUGUCAGAUUCUGGUGAAUCUGCGAAUUCUGCCGUAUAUCUC [G6A C11A A13U U72C] | 0.61
4 | UAACAAGGGGACACAGCAGAAGUGUUCACUUCGCAGCCCCUGUCGGAUUCUGGUGAAUCUGCGAAUACUGCUGAAUAUCUC [G6A C11A C23U G30U A45G U67A U74A] | 0.02
5 | UAACAAGGGGGCACAGCAGAAGCGUUCACGUCGCGGCAUCUGUCAGAUCCUGGUGAAUCUGCGAAUUCUGCUGUAUAUCUG [G6A C11G A35G C38A C39U U49C C81G] | 0.28
6 | UAACAAGGGGGCACAGCAGAAGCGUUCACGUCGCAGCCCCUGUCAGAUUCUGGUGAAUCUGCGAUUUCUGCUGUAUAUCUC [G6A C11G A65U] | 0.34
7 | UAACAAGGGGUCACAGCAGAAGCGUUCACGUCGCAGCCCCUGUCAGAUUCUGGUGUAUCUGCGAAUCAUGCUGUAUAUCUC [G6A C11U A56U U67C C68A] | 0.21
8 | UAACAAGGGGUCACAGCAGAAGCGUCCACGUCGCAGCCCCCGUCAGAUUCUGGUAAAACUGCGAAUUCUGCUGUAUAUCUC [G6A C11U U26C U41C G55A U58A] | 0.05
9 | UAACAAGGGGUCACAGCAGAAGCGUUCACGUCGCAGCCCCUGUCAGAUUCUGGCGAAUCUGCGAAUUCUGCUGUUUAUCUC [G6A C11U U54C A75U] | 0.06
10 | UAACAAGGGGCAAAAGCAGAAGCGUUCACGUCGCAGCACCUGUCAGAUUCUGGUGAAUCUGCGAAUUCUGCUGUAUAUCUC [G6A C12A C14A C38A] | 0.26
11 | UAACAAGGGGCGACAGCAGAAGCGUUCAGGUCGCAGCCCCUGUCAGAUUCUGGUGAAUCUGCGAAUUCUGCUGUAUAUCUC [G6A C12G C29G] | 0.24
12 | UAACAAGGGGCUACAGCAGGGGCGUUCACGUCGCAGCCCCUGUCAGACUCUGGUGAAUCUGCGAAUUCUGCUGAAUAUCUC [G6A C12U A20G A21G U48C U74A] | 0.06
13 | UAACAAGGGGCUACAGCAGAGGCGUUCGCGUCGCAGCCCCUGUCAGAUUCUGGUGAAUCUGCGAAUUCUGCUGUAUAACUC [G6A C12U A21G A28G U78A] | 0.05
14 | UAACAAGGGGCUACAACAGAAGCGUUCACGUCGCAGCCCCCGUCAGAUUCUGGUGAAUCUGCGAAUUCUGCCGUAUAUCUC [G6A C12U G16A U41C U72C] | 0.26
15 | UAACAAGGGGCUACAGCAGAAGCGUUCACGUCGCAGCCCCUGCCAGAUUCUUGUGAAUCCGCGAAUUCUGCUGUAUACCUC [G6A C12U U43C G52U U60C U78C] | 0.06
16 | UAACAAGGGGCUACAGCAGAAGCGUUCACGUCGCAGCCCCUGUCAGAUCCUGGUGAAUCUGCGCAUUCUGCUGUAUAUCUC [G6A C12U U49C A64C] | 0.06
17 | UAACAAGGGGCCAAAGCAGAAGUGUUCACGUCGGAGCCCCUGUCAGAAUCUGGUGAAUCUGCGGAUUCUGCUGUAUAUCUC [G6A C14A C23U C34G U48A A64G] | 0.04

Row | Variant | self-cleavage
18 | UAACAAGGGGCCAUAGCCGAAGCGUUCACGUCGCAGCCCAUGUCAGAUCCUGGUGAAUCUGCGGAUUCUGCUGUAUGUCUC [G6A C14U A18C C40A U49C A64G A77G] | 0.03
19 | UAACAAGGGGCCAUAGCAGAAGCGUUCACGUCGCAGCCCCUGUCAGAUUCUGGCGAAUCAGCGAAUUCUGCUGUAUAUCUC [G6A C14U U54C U60A] | 0.07
20 | UAACAAGGGGCCACAGAAGAUGCGUUCACGUCGCAGCCCCCGUCAGAUUCGGGUGAAUCUGCGAUUUCUGCUGUAUACCUC [G6A C17A A21U U41C U51G A65U U78C] | 0.06
21 | UAACAAGGGGCCACAGAAGAAGCGUUCAUGUCGCAGCCCCUGUCAGAUUCUGGUGAAUCUGCGAAUUCUGCUGUAUAUCUC [G6A C17A C29U] | 0.18
22 | UAACAAGGGGCCACAGCAGAAGGGUUCAUGUCGCAGCCCCUGUCGGAUUCUGGUGAGUCUGCGAAUUCAGCUGUAUAUCUC [G6A C23G C29U A45G A57G U69A] | 0.07
23 | UAACAAGGGGCCACAGCAGAAGUGUUCACGUCGCAGCCCCUGUCAGAUUCUGGUGAGUCUGCGAAUUCUGCUGUAUAUCUC [G6A C23U A57G] | 0.21
24 | UAACAAGGGGCCACAGCAGAAGUGUUCACGUCGCAGCCCCGGUCAGAUCCUGGUGAAUCUGCGAAUUCAGCUGUAUAUCUC [G6A C23U U41G U49C U69A] | 0.06
25 | UAACAAGGGGCCACAGCAGAAGUGUUCACGUCGCAGCCCCUGUCAGAUUCAGGUGAGUCUGCGGAUUCUGCUGUAUAUCUC [G6A C23U U51A A57G A64G] | 0.08
26 | UAACAAGGGGCCACAGCAGAAGCGUUUACGUCGCAGCCCCUGUCAGAUUCUGGUGAAUCUGCGAACUCAGCUGUUUAUCUC [G6A C27U U66C U69A A75U] | 0.1
27 | UAACAAGGGGCCACAGCAGAAGCGUUCAGGACGCAGCCCCUGUCAGAUUCUGGAGAUUCUGCGAAUUCUGCUGUAUAUCUC [G6A C29G U31A U54A A57U] | 0.32
28 | UAACAAGGGGCCACAGCAGAAGCGUUCAUGUCGCAGCCCCUGUCAGAUUCUGGUGAGUCUGCGGAUUCUGCAGCAUAUCUC [G6A C29U A57G A64G U72A U74C] | 0.05
29 | UAACAAGGGGCCACAGCAGAAGCGUUCAUGUCGCAGCCCCUGUCAGAUUCUGGUGAAUCUGCGAAUUCUGCUGUAUACCUC [G6A C29U U78C] | 0.27
30 | UAACAAGGGGCCACAGCAGAAGCGUUCACGUAGCAGCCCCUGUCAGAUUCUGGUGAAUCUGCGUAUUCUGCUGUAUAUCUC [G6A C32A A64U] | 0.09
31 | UAACAAGGGGCCACAGCAGAAGCGUUCACGUUGCAGCCCCUGUCGGAUCCUGGUGGAUCUGCGAAUUCUGCUGUAUAUCUC [G6A C32U A45G U49C A56G] | 0.19
32 | UAACAAGGGGCCACAGCAGAAGCGUUCACGUCGGAGCCCCUGUCAGAUUCUGGUGGAUCUGCGAACUCUGCUGUAUAUCUC [G6A C34G A56G U66C] | 0.2
33 | UAACAAGGGGCCACAGCAGAAGCGUUCACGUCGGAGCCCCUGUCAGAUUCUGGUGAAUCUGCGAACUCUGCUGUAUAUCUC [G6A C34G U66C] | 0.18
34 | UAACAAGGGGCCACAGCAGAAGCGUUCACGUCGCAGUCCCUGUCGGAUUCUGGUGAAUCUGCGAAUUCUGCUGUAUAUCUC [G6A C37U A45G] | 0.18
